Test results published in PubChem BioAssay AID2675 (National Center for Advancing Translational Sciences (NCATS), 2010).
Out of some 280,000 compounds screened, about 100 (0.036%) were called active. Inconclusive results, whose numbers are uncertain, are shown with a selection of clear calls. The call rests on the fitted dose curve; in most records, active means well fitted inhibition curve with a large enough effect in the signal ratio, with a control signal flat (not every such curve was filed as active); inconclusive means small, poorly fitted or top-dose-only effect, or effect the other way, or a change in a side signal; inactive means no such curve, though single readings can be large or run the other way; the % refers to the signal ratio. Potencies of inconclusive entries are doubtful fits and often do not repeat. A note “side channel” means that the fit belongs to a control or component signal, not to the main read-out.

molecular target: Muscleblind-like protein 1 (Homo sapiens) (UniProt Q9NR56); assay: qHTS Assay for Inhibitors of MBNL1-poly(CUG) RNA binding; conditions: TR-FRET MBNL1-His/biotin-(CUG)12 binding, 665/545 ratio; activity change, negative = inhibition: at 57.5 µM (top of the series)
UniProt Q9NR56, sequence (Q9NR56 whole entry, looked up): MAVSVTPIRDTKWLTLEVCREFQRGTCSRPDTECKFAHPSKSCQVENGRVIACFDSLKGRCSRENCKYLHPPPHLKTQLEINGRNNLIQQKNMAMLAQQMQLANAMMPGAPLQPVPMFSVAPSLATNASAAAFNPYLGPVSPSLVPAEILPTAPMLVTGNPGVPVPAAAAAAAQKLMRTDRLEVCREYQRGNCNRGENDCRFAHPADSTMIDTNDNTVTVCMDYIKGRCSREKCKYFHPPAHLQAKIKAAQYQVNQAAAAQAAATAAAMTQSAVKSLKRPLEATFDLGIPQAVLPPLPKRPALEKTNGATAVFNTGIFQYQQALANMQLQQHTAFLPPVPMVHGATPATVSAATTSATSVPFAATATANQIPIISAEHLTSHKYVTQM
Method in brief: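 TR-FRET readout: Ex 340 nm, 665/545 nm emission ratio, normalized to buffer-only (basal) and MBNL1-(CUG)12 controls. Complex of MBNL1-His with Biotin-(CUG)12, compounds 92 nM–58 uM, incubated 60 min at room temperature.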
On the % scale 0 is the no-effect control and ±100 the full control effect; potency means the concentration at half of the fitted maximal effect; tags describe the fitted curve by direction and shape or compound fluorescence and quenching.

| Compound | Potency | activity change, negative = inhibition |
| --- | --- | --- |
| CC1CN(C(=O)c2cc3cc(Cl)cc(Cl)c3oc2=O)CC(C)O1 (configuration not stated) | inconclusive: 15.8 µM [quencher, side channel, partial curve] | – |
| Cc1ccc(NC(=S)N2CCN(c3ncccn3)CC2)c(C)c1 | inconclusive: 0.126 µM [fluorescent, side channel, full curve, poor fit] | – |
| Cc1onc(-c2ccccc2Cl)c1C(=O)Nc1ccc(-c2cn3cccnc3n2)cc1 | inconclusive: 3.16 µM [quencher, side channel, full curve] | – |
| O=C(CCN1CCN(S(=O)(=O)c2ccc(Cl)cc2)CC1)Nc1ccccc1F | – | inactive: -0.197% |
| Cc1cc(NCCNC2=CC(=O)CCC2)nc2ccccc12 | inconclusive: 3.55 µM [quencher, side channel, single point] | – |
| CC(=O)Oc1ccc2oc(=O)c3c(c2c1)CCCN3C(=O)CN1CCOCC1 | inconclusive: 20 µM [quencher, side channel, single point] | – |
| COC(=O)c1ccc(CNC(=O)CSc2nnc(COc3ccccc3)n2C)o1 | – | inactive: -3.74% |
| CCC(NC(=S)NCc1ccc(F)cc1)c1ccccc1 (configuration not stated) | – | inactive: -3.45% |
| CC(=O)c1ccc(NC(=O)C(=O)c2cn(CC(=O)N3CCCCC3)c3ccccc23)cc1 | inconclusive: 251 µM [fluorescent, side channel, partial curve] | – |
| Cc1ccc(-c2nc3ccccc3o2)cc1NC(=S)NC(=O)c1cc2ccccc2o1 | inconclusive: 0.1 µM [fluorescent, side channel, partial curve, poor fit] | – |
| O=C1Nc2ccc3sc4ccccc4c3c2C1=O | inconclusive: 7.94 µM [quencher, side channel, partial curve] | – |
| O=C(NCCCN1CCN(c2ccc(F)cc2)CC1)Nc1ccc([N+](=O)[O-])cc1 | inconclusive: 35.5 µM [quencher, side channel, partial curve] | – |
| O=C1Nc2ccc([N+](=O)[O-])cc2OC1CCN1CCN(Cc2ccccc2)CC1 (configuration not stated) | inconclusive: 28.2 µM [quencher, side channel, partial curve] | – |
| Cc1nc2ccc(NC(=S)NCCCO)cc2nc1C | inconclusive: 22.4 µM [quencher, side channel, partial curve] | – |
| COC(=O)c1c(NS(=O)(=O)c2ccc(C)cc2)sc2c1CCC(C)C2 (configuration not stated) | inconclusive: 0.447 µM [fluorescent, side channel, full curve, poor fit] | – |
| Cc1ccc(C)c(NC(=O)c2cnn3ccccc23)c1 | – | inactive: 3.44% |
| C/C(=N\O)C(=O)NCc1ccccn1 | – | inactive: -3.11% |
| O=C(NCc1cccnc1)c1ccc(-c2cc(Cl)ccc2Cl)o1 | inconclusive: 25.1 µM [quencher, side channel, single point] | – |
| CCOC(=O)c1sc(=S)n(-c2ccc(OC)cc2)c1N | inconclusive: 14.1 µM [quencher, side channel, partial curve] | – |
| Cc1ccc2[nH]c(=O)c(CNC(C)(C)C)cc2c1 | inconclusive: 14.1 µM [quencher, side channel, partial curve] | – |
| Cc1ccc2[nH]c(=O)c(C(c3nnnn3CC3CCCO3)N3CCc4ccccc4C3)cc2c1 (configuration not stated) | inconclusive: 14.1 µM [quencher, side channel, partial curve] | – |

| Compound | Potency | activity change, negative = inhibition |
| --- | --- | --- |
| O=C(Oc1ccc(C(=S)N2CCOCC2)cc1)c1ccc([N+](=O)[O-])cc1 | inconclusive: 3.16 µM [quencher, side channel, full curve] | – |
| CSc1nnc(NC(=O)c2nc(S(=O)(=O)Cc3ccccc3)ncc2Cl)s1 | – | inactive: 10.1% |
| N#Cc1c(F)cccc1N1CCOCC1 | inconclusive: 0.708 µM [quencher, side channel, single point] | – |
| CCOC(=O)Nc1ccc2c(COC(=O)CNS(=O)(=O)c3cccc(Br)c3)cc(=O)oc2c1 | inconclusive: 39.8 µM [fluorescent, side channel, single point] | – |
| COc1ccc(-c2cc(C(F)(F)F)nc(SCC(=O)NCc3cnn(C)c3C)n2)cc1OC | inconclusive: 3.16 µM [quencher, side channel, partial curve] | – |
| COc1cccc(C(=O)Nc2ccc3c(cc2=O)[C@@H](NC(C)=O)CCc2cc(OC)c(OC)c(OC)c2-3)c1 | inconclusive: 15.8 µM [quencher, side channel, partial curve] | – |
| CSc1ccc(Cl)c(C(=O)OCC(=O)NCC(C)C)c1 | – | inactive: 11.9% |
| Cc1c(C(=O)O)[nH]c2ccc([N+](=O)[O-])cc12 | inconclusive: 10 µM [quencher, side channel, partial curve] | – |
| CCN(CC)S(=O)(=O)c1cccc(C(=O)N/N=C/c2ccc(O)c(O)c2O)c1 | – | inactive: -1.03% |
| Cc1cc(OC(C)C(=O)NCCCN2CCOCC2)ccc1Cl (configuration not stated) | – | inactive: -4.61% |
| O=C1c2ccccc2C(=O)N1CCCc1nc(-c2ccc(Cl)cc2)no1 | – | inactive: -3.44% |
| O=C(c1coc(=O)c(Br)c1)N1CCOCC1 | inconclusive: 0.126 µM [quencher, side channel, full curve, poor fit] | – |
| c1ccc(Cc2cc[n+](Cc3ccccc3)cc2)cc1 | inconclusive: 11.2 µM [quencher, partial curve] | – |
| CC(=O)c1ccc(NC(=O)CCC(=O)OCC(=O)c2cccc([N+](=O)[O-])c2)cc1 | inconclusive: 15.8 µM [quencher, side channel, partial curve] | – |
| COc1ccccc1C1CC(c2ccc(Br)cc2)=NN1C(=O)c1cccnc1 (configuration not stated) | – | inactive: 22.1% |
| COc1ccccc1/C=N/N1C(=O)c2cccc3cccc(c23)C1=O | inconclusive: 14.1 µM [quencher, partial curve] | – |
| C(=N\N1CCN(c2ccccn2)CC1)/c1ccco1 | inconclusive: 20 µM [quencher, side channel, partial curve] | – |
| O=c1c2ccc(Cl)cc2[nH]c(=S)n1CCCN1CCOCC1 | – | inactive: -4.7% |
| COc1ccc2o/c(=N/NC(=O)c3cccs3)c(C(N)=O)cc2c1 | inconclusive: 14.1 µM [quencher, partial curve] | – |
| O=C(NCCc1ccccc1)C(=O)N/N=C/c1ccc2c(c1)OCO2 | – | inactive: -5.54% |
| CCOC(=O)N/N=C\c1ccc(-c2cc(Cl)ccc2Cl)o1 | inconclusive: 31.6 µM [quencher, side channel, single point] | – |

| Compound | Potency | activity change, negative = inhibition |
| --- | --- | --- |
| Cc1nc2ccccc2n1CCOc1ccc([N+](=O)[O-])cc1 | inconclusive: 15.8 µM [quencher, side channel, partial curve] | – |
| COc1ccccc1N1CCN(C(=O)CSc2nc3ccccc3nc2N2CCC(C)CC2)CC1 | – | inactive: 16.4% |
| COc1cc([N+](=O)[O-])ccc1NC(=O)C[n+]1cccc(C(C)=O)c1 | inconclusive: 14.1 µM [quencher, side channel, partial curve] | – |
| COc1cc2c(cc1OC)C(COc1cccc(C(F)(F)F)c1)NCC2 (configuration not stated) | – | inactive: -0.873% |
| S=c1[nH]nc(C2CCCCC2)n1Cc1ccccc1 | – | inactive: -6.7% |
| CCOc1cc(/C=N/Nc2nc(=O)[nH]nc2C)ccc1O | inconclusive: 28.2 µM [quencher, side channel, single point] | – |
| O=C(N/N=C/c1ccc([N+](=O)[O-])o1)c1ccc2c(c1)OCO2 | inconclusive: 14.1 µM [quencher, partial curve] | – |
| CCOC(CNc1cc(C)nc2c(-c3ccccc3OC)c(C)nn12)OCC | inconclusive: 0.631 µM [fluorescent, side channel, single point] | – |
| COc1ccc(NC(=O)CSc2nnnn2C)c([N+](=O)[O-])c1 | inconclusive: 14.1 µM [quencher, side channel, partial curve] | – |
| CC1=NN(C(N)=S)C(=O)C1N=Nc1ccc(Cl)cc1Cl (configuration not stated) | inconclusive: 17.8 µM [quencher, side channel, partial curve] | – |
| COc1ccccc1C(=O)Nc1ccnn1C1CCN(CC2CC=CCC2)CC1 (configuration not stated) | – | inactive: 2.2% |
| c1ccc(-n2nnnc2NCCc2c[nH]c3ccccc23)cc1 | – | inactive: -1.77% |
| COc1ccc(-n2nc(C(=O)N3CCCCC3)c(C)c(C#N)c2=O)cc1 | inconclusive: 15.8 µM [quencher, side channel, partial curve] | – |
| CCN1CCc2c(sc(NC(=O)c3ccc(S(=O)(=O)N4CCOCC4)cc3)c2C(N)=O)C1 | inconclusive: 35.5 µM [quencher, side channel, partial curve] | – |
| Cc1ccc(C(=O)N/N=C/c2ccc3c(c2)OCO3)o1 | inconclusive: 20 µM [quencher, side channel, single point] | – |
| COC(=O)C1=CN(c2cccc(C)c2)C=C(C(=O)OC)C1c1cc(OC)c(O)c([N+](=O)[O-])c1 | inconclusive: 28.2 µM [quencher, side channel, single point] | – |
| Cc1nc([N+](=O)[O-])c(C(=O)OCc2ccc(C#N)cc2)n1C | inconclusive: 15.8 µM [quencher, side channel, partial curve] | – |
| COc1ccc(/C=N\NC(=O)c2ccccc2F)cc1COc1ccc(F)cc1F | inconclusive: 10 µM [quencher, side channel, partial curve] | – |
| COc1ccc(/C(C)=N/NC(=O)c2ccc(CSc3cccc4cccnc34)cc2)cc1OC | inconclusive: 39.8 µM [quencher, side channel, single point] | – |
| O=C(CCNS(=O)(=O)c1cccc2nonc12)NCc1cccs1 | inconclusive: 14.1 µM [quencher, side channel, partial curve] | – |
